# In all, about 33,000 sequences were measured (“E-score (-0.5 to 0.5)”: median about -0.054, highest 2% from about 0.39 on). The list shows a part of the results.
# Target: Ylr278c (UniProt Q05854)
# Test: PBM E-score (8-mer binding enrichment) (E-score (-0.5 to 0.5)); higher = stronger / more preferred TF binding; most listed sequences are background and not binding sites
# Conditions: protein concentration: 200 nM; construct: GST-DNA-binding domain
# Description: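 Universal 'all 10-mer' protein binding microarrays (Agilent AMADID 015681) probed with GST-tagged S. cerevisiae TFs (full-length or DBD) made by in vitro transcription/translation (PURExpress), about 100-200 nM. Bound TF was detected with fluorescent anti-GST. Each ungapped 8-mer (which stands for itself and its reverse complement) is scored by the PBM enrichment score (E-score), a modified Wilcoxon-Mann-Whitney statistic from -0.5 to +0.5, computed with the Universal PBM Analysis Suite. Scale: above 0.35 generally sequence-specific binding.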
row,Sequence,PBM E-score
1,AGGGATAA,-0.283
2,GCCGCCGA,0.338
3,ATTCACGA,-0.102
4,GCACCGGC,0.264
5,TACAAGTA,-0.244
6,ATCCTACG,-0.112
7,CGTGCCGA,0.248
8,AGGGCGTA,-0.128
9,ATCTACAT,0.0143
10,GGGTACGA,-0.152
11,CCCACTTC,0.0368
12,ATATCCAG,-0.15
13,ATAATCCA,0.00051
14,ATAGGGAG,-0.265
15,CCGGTCGA,0.319
16,AAACATAA,-0.251
17,TAAACATA,-0.118
18,AAGATAAT,0.00135
19,GCGGTCAA,0.198
20,CCGCGGTC,0.268
21,GCCCTAGC,-0.184
22,CATATTTA,-0.0147
23,TCACGTCA,-0.117
24,TTTGCAAA,-0.106
25,GTCTAGCA,-0.128

row,Sequence,PBM E-score
1,AGTGGGGC,-0.117
2,GAAGTGCA,-0.107
3,TAAAGTGA,-0.0428
4,ACGGTAAA,0.0145
5,ACTCCAAG,-0.198
6,GAGTTGCC,0.129
7,ACCCTTGA,-0.00215
8,ACAATGCG,0.0377
9,ACAGTGTA,-0.147
10,AACTGTCA,-0.12
11,ACCTGCAG,-0.3
12,AGTTGCGA,-0.123
13,CATCTCGC,-0.0349
14,AGCTAGTC,-0.0734
15,CCCTCGAG,-0.266
16,CCTATGAG,-0.291
17,AAGACGTC,-0.202
18,AGATGACG,-0.223
19,AGAGCGAC,-0.194
20,AAAAACGC,0.0626
21,GGTGCTCA,-0.18
22,AATCTAGA,-0.329
23,CGGACCGC,0.392
24,AGAAGCAC,-0.13
25,ATCTAACG,0.0888

row,Sequence,PBM E-score
1,AGTAGGAC,-0.0502
2,TGCCACCA,-0.28
3,ACGTTAAG,-0.152
4,ACTGATAG,-0.203
5,ACCTAAGC,0.0293
6,CGGATACC,0.295
7,AGATCAGA,-0.338
8,CGTTCTCC,0.231
9,ACGTCCAC,-0.172
10,GAACCAAA,-0.187
11,AGCATAAA,0.0832
12,AAAGGTAT,0.0581
13,AGCAGTCG,-0.0461
14,ACCGAAAT,0.223
15,AGCCACCC,-0.0671
16,CAACTAAG,-0.0852
17,GCTGCGCC,-0.0608
18,TTACGTAA,-0.407
19,AGCCCTTC,-0.241
20,CAGCTGCA,-0.0112
21,CAAGTCTC,-0.302
22,AGCCGACT,0.0892
23,TCTGGGCA,0.101
24,ACAAACAG,-0.0638
25,GATAAGAA,-0.0109

row,Sequence,PBM E-score
1,TGAAGACA,-0.137
2,CGCGCCGA,0.303
3,CCCGGCCA,0.267
4,CGAGCATC,0.0603
5,AGCCGTAC,-0.0213
6,AGAACGAA,-0.0218
7,CGATAGTA,0.0399
8,CTGTTTGC,-0.121
9,CTACATGA,-0.162
10,CGATTGAA,0.00725
11,AGGCCACG,-0.0792
12,TAGCGCGA,0.074
13,AGAAGGAA,-0.147
14,ACGTGTTA,0.0203
15,AGCGTTAA,-0.0183
16,AGATAGCA,-0.0546
17,CTAGGCGA,-0.043
18,GACTTTAC,0.0435
19,ATTGTTCA,-0.111
20,ACGGGAAC,0.0817
21,GAAGTGTC,0.0815
22,ACTGAGTG,-0.0329
23,AGGTTTCA,-0.0489
24,ACTAAGCA,-0.251
25,CCTGCTGC,-0.0437

row,Sequence,PBM E-score
1,ATCAGAGA,-0.213
2,CATTCTAA,-0.0683
3,AATCACTC,-0.206
4,ACGCACCA,-0.158
5,TACTATCA,-0.00451
6,ACCCGCGT,-0.0308
7,CATATACC,0.00786
8,GTTTCGCA,-0.0936
9,GGGGCAGA,-0.101
10,ACTCTGTC,-0.228
11,GCCACGAA,-0.214
12,ATACTTTC,0.00946
13,CTTGATAA,-0.0321
14,GTCAGCAC,-0.0241
15,CGCTCGCA,0.136
16,AAAACAGA,-0.131
17,ACCCCCAT,-0.294
18,ATATGTCC,0.198
19,CTTCCTAA,-0.0723
20,CCGCACTA,0.293
21,CCGAACCC,0.269
22,CGTGGGAG,0.0745
23,TAATCCAA,-0.121
24,CCCCAAAC,-0.135
25,CCCTCTCA,-0.296

row,Sequence,PBM E-score
1,ACTCGAAG,-0.1
2,CCCGAGTA,0.241
3,ACCGAGAG,0.0585
4,AACGGACC,0.251
5,CCGAAGAG,0.228
6,GGGCGTGA,0.0298
7,GCCGCTTA,0.173
8,TATACAAA,-0.0234
9,GTCGACAA,-0.0883
10,CCAATGAG,-0.219
11,AGCTGTCG,-0.102
12,ACAAGTTC,-0.057
13,AATTACGC,-0.19
14,CTGACGGC,0.128
15,ATCACAGA,-0.149
16,AGGCAAAA,0.0496
17,AGCCAGAT,-0.0935
18,GGAACTAA,0.294
19,ACAGTATG,-0.159
20,AGTCCACA,-0.116
21,CACTTCCA,-0.112
22,AGCGCCTC,0.0381
23,CGGGTTCA,0.156
24,CATATAAC,-0.0367
25,ACCCCACT,0.0507

row,Sequence,PBM E-score
1,AAATGTAT,0.0681
2,GGTCTTCA,-0.0994
3,CAAGCCGA,0.118
4,AACATTAT,-0.0876
5,CAGATGTA,-0.0526
6,AAGCACAG,-0.03
7,AAAGCAAC,-0.195
8,AACAGTCG,0.048
9,GGGGATAA,0.166
10,CCCTTCGC,-0.131
11,ACTCCGGG,0.481
12,TCTAGCCA,-0.184
13,GCCAAGTA,-0.286
14,CGCTACTA,0.185
15,ACATTGCG,0.0315
16,AACACCCA,-0.127
17,GCGCTGTA,-0.0297
18,GCACGAAA,-0.0804
19,ATTCGTGA,-0.241
20,GAGTGCCA,-0.179
21,ATAGAGAT,-0.177
22,GCAGCCGA,0.156
23,ATCATATC,0.0267
24,GACAATGA,-0.0237
25,ATCAACGA,0.0531

row,Sequence,PBM E-score
1,CAGGACAC,-0.0853
2,TATAATCA,0.00794
3,AACAACCG,0.14
4,AAATATAT,0.0878
5,TGCTGACA,-0.236
6,CGCAAAAA,0.0607
7,CAAGAATC,0.0987
8,AGGCTTCC,0.0193
9,CCCGTGAA,0.0652
10,GAATCGCC,0.122
11,TTGGTAAA,-0.0756
12,CGGATGTA,0.307
13,AGGAGGCA,0.0142
14,GTAGAAAA,-0.159
15,TGATCTAA,-0.15
16,AGCCGATA,0.0691
17,GGTCTGAA,-0.00874
18,CTTGACTC,-0.162
19,GCTGTGGA,-0.0372
20,ACAGACGG,-0.0501
21,AAATGGCC,0.148
22,ACTTACGG,0.228
23,ATGAGGCC,-0.0719
24,CAAAGGGA,-0.279
25,TGCGTTAA,-0.238

row,Sequence,PBM E-score
1,ACGGCGGA,0.37
2,AGTACCAA,0.0288
3,CCGGGCCC,0.339
4,AGCACGTC,-0.0777
5,CACGGTTA,0.0945
6,CCATAGAA,-0.134
7,CAAATTCC,0.338
8,AACATCAC,-0.154
9,GGAATCGA,0.159
10,GTATCACA,-0.163
11,TTACAGAA,-0.225
12,ATACACAC,-0.256
13,AGTCGTGG,-0.166
14,GAACAAAC,0.137
15,GGCGTTAC,-0.0409
16,ACCTTAGG,-0.17
17,ACGTAGGC,-0.281
18,AGATACCG,0.149
19,CTTACATA,-0.0547

# From the supplement of paper PMC3334620
